Patent EP4786494A1 (Nanjing Leads Biolabs Co., Ltd., dated 2026)

Columns and labels:
[1] = target: T1, human VEGF165 protein (ACROBiosystems, Cat. No. VE5-H5248) (human, UniProt P15692-4 27-191); assay: BLI (ForteBio Octet RED96e), fusion protein on AHC sensor, VEGF165 in solution, 1:1 model
T1 construct: the same entry is used for it
T1 sequence (looked up): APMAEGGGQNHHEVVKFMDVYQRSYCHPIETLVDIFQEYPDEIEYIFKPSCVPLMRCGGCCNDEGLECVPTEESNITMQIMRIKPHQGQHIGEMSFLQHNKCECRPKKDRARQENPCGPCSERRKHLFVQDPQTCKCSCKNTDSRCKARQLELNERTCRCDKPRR

[2] = target: T2, human FGFR2-his protein (huFGFR2-his) (human); assay: BLI (ForteBio Octet RED96e), fusion protein on AHC sensor, FGFR2-his in solution, 1:1 model
T2 construct: Extracellular region of human FGFR2 (NP_001138385.1) with a 6xHis tag; also called human FGFR2 extracellular protein
T2 chain: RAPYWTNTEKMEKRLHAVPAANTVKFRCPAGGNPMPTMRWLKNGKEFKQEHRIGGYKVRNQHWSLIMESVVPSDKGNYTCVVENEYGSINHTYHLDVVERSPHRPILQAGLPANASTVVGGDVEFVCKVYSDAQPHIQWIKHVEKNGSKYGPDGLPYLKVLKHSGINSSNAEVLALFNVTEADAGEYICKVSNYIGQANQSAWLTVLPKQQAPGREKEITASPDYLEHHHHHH

Kd [1]: 0.108 nM | koff [1]: 6.12e-05 s⁻¹ | kon [1]: 568000 M⁻¹ s⁻¹ | Kd [2]: 4.53 nM | koff [2]: 0.00136 s⁻¹ | kon [2]: 299000 M⁻¹ s⁻¹
B1: antibody-fusion protein huG11B8-VEGFR1-F (ADCC-enhanced huG11B8-VEGFR1) (bispecific antibody, human IgG1, kappa)
heavy: EVQLVQSGAEVKKPGATVKISCKASGYTFTDYNMDWVQQAPGKGLEWMGDINPKNGETFYAEKFQGRVTLTVDRSTNTAYMELSSLRSEDTAVYFCAKRDLNWYFDYWGQGTTVTVSS[no letters for human IgG1 constant region]GGGGSGGGGSGGGGSGRPFVEMYSEIPEIIHMTEGRELVIPCRVTSPNITVTLKKFPLDTLIPDGKRIIWDSRKGFIISNATYKEIGLLTCEATVNGHLYKTNYLTHRQTNTI
light: DIQMTQSPSSLSASVGDRVTITCQASDHINNWLAWYQQKPGKAPKLLISGATSLETGVPSRFSGSGSGKDYTFTISSLQPEDIATYYCQQYWSTPWTFGGGTKVEIKRTVAAPSVFIFPPSDEQLKSGTASVVCLLNNFYPREAKVQWKVDNALQSGNSQESVTEQDSKDSTYSLSSTLTLSKADYEKHKVYACEVTHQGLSSPVTKSFNRGEC
notes: Same chains as huG11B8-VEGFR1
